For at least one compound, name, drawing or mass did not settle the structure.
Key:
[1] = biological target: cholinesterase (ChE), susceptible strain; assay: Inhibition of cholinesterase (acetylthiocholine method), susceptible strain enzyme; assay type: biochemical, green rice leafhopper, Nephotettix cincticeps; details: 50% inhibition concentration, 30° C. 30 min with inhibitor, read-out: Inhibition of Cholinesterase I50 (M) S
Protocol: The activity of ChE was performed by the acethyethiocholine method [Ellman (1961), Biochemical Pharmacology 7: 88-95].
[…]. After centrifuged (30,000 g, 10 min.), the supernatant was used as the source of ChE.
(§1) (2) Inhibition: 1.0 ml of enzyme solution was incubated with 0.1 ml of inhibitor which diluted with acetone at 30° C. for 30 min. ((2) solution).
(3) Determination of ChE activity: 1.0 ml of acetylthiochline (3.5/2×10^-2 M), 1.0 ml of DTNB (5,5'-dithiobis-2-nitrobenzoic acid, 2.5×10^-4 M) and 4.0 ml of phosphate buffer (1/15 M, pH 7.4) were added to the (2) solution and incubated at 30° C. for 10 min. After incubation, […] of eserine (2×10^-3 M) was added in order to stop the enzyme reaction and the optical density of the yellow solution was measured at 412 mμ on the spectrophotometer.

[2] = test system: cholinesterase (ChE), resistant strain; assay type: biochemical, green rice leafhopper, Nephotettix cincticeps; details: for Inhibition of Cholinesterase R/S (resistant ratio): ratio of the resistant strain to the susceptible strain (I50), 30 min; for IC50: resistant strain, 50% inhibition concentration, 30° C. 30 min with inhibitor, read-out: Inhibition of Cholinesterase I50 (M) R
Protocol: After centrifuged (30,000 g, 10 min.), the supernatant was used as the source of ChE.
as §1
(3) Determination of ChE activity: 1.0 ml of acetylthiochline (3.5/2×10^-2 M), 1.0 ml of DTNB (5,5'-dithiobis-2-nitrobenzoic acid, 2.5×10^-4 M) and 4.0 ml of phosphate buffer (1/15 M, pH 7.4) were added to the (2) solution and incubated at 30° C. for 10 min.

Compound | IC50 [1] [M] | Inhibition of Cholinesterase R/S (resistant ratio) [2] | IC50 [2] [M]
CNC(=O)Oc1ccccc1OC(C)C [Compound 81, 2-isopropoxyphenyl-N-methylcarbamate, reference compound] | 3.8e-06 | 34.2 | 0.00013
CCCNC(=O)Oc1ccccc1OC(C)C [Compound 83, 2-isopropoxyphenyl-N-n-propylcarbamate] | 0.00039 | 0.4 | 0.00018
CCCNC(=O)Oc1cc(C)cc(C(C)C)c1 [Compound 47, 3-methyl-5-isopropylphenyl-N-n-propylcarbamate] | 4.5e-05 | 0.1 | 8.5e-06
C=CCOc1ccccc1OC(=O)NCCC [Compound 89, 2-allyloxyphenyl-N-n-propylcarbamate] | 0.00038 | 0.2 | 8.9e-05
CCCNC(=O)Oc1ccccc1OC(C)CC (stereo not drawn) [Compound 87, 2-sec-butoxyphenyl-N-n-propylcarbamate] | 0.00022 | 0.3 | 7.4e-05
CCCNC(=O)Oc1ccc(C)c(C)c1 [Compound 37, 3,4-dimethylphenyl-N-n-propylcarbamate] | 0.00019 | 0.07 | 1.4e-05
CNC(=O)Oc1cc(C)cc(C)c1 [Compound 40, 3,5-dimethylphenyl-N-methylcarbamate, reference compound] | 4.2e-06 | 17.9 | 7.5e-05
C=CCNC(=O)Oc1cccc(C)c1 [Compound 28, 3-methylphenyl-N-allylcarbamate] | 0.00022 | 1.0 | 0.00021
CCC(C)c1ccccc1OC(=O)NC (stereo not drawn) [Compound 6, 2-sec-butylphenyl-N-methylcarbamate] | 1.1e-06 | 75.5 | 8.3e-05
